# According to the supplement of paper PMC8728848:
# The list shows a part of the results.
# B1: CLECb-Precomplexed (Mus musculus), P43025 (protein)
# chain: MAKNGLVLCILVVSLLLDQTDGYPSRMKARKHSKRRVKAKDDDLKSQVEKLWREVNALKEMQALQTVCLRGTKVHKKCYLASEGLKHYHEANEDCISKGGTLVVPRNSDEINALRDYGKRSLPGVNDFWLGINDMVTEGKFLDVHGFAVSFLNWDRAQPSGGKRENCVLFSQSAQGKWSDEACRSSKRYICEFIIPTRTRPLEQKLISEEDLAANDILDYKDDDDKV
# Tests used:
# Assay in all cases: glycan array binding signal (z-score within array); higher = stronger binding
# Conditions in all cases: glycan notation: IUPAC condensed, linker removed
# [1] = target: Gal(a1-3)Gal(b1-4)GlcNAc(b1-2)Man
# Procedure, shortened: (§1)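 Glycan array data came from 3228 arrays in the Consortium for Functional Glycomics database, and only arrays with an available protein sequence were kept. Glycan names were put into IUPAC-condensed notation, and columns mapping to the same glycan were averaged. The binding signal is a within-array Z-score, averaged across arrays of one protein sequence run at different concentrations or buffers and across linkers. A negative Z-score can be read as non-binding.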
# [2] = target: Gal(a1-3)Gal(b1-4)GlcNAc(b1-2)Man(a1-3)[Gal(a1-3)Gal(b1-4)GlcNAc(b1-2)Man(a1-6)]Man(b1-4)GlcNAc(b1-4)GlcNAc
# Procedure, shortened: as §1
# [3] = target: Gal(a1-3)Gal(b1-4)GlcNAc(b1-3)GalNAc
# Procedure, shortened: as §1
# [4] = target: Gal(a1-3)Gal(b1-4)GlcNAc(b1-6)GalNAc
# Procedure, shortened: as §1
# [5] = target: Gal(a1-3)Gal(b1-4)[Fuc(a1-3)]GlcNAc
# Procedure, shortened: as §1
# [6] = target: Gal(a1-3)Gal(b1-4)[Fuc(a1-3)]GlcNAc(b1-2)Man(a1-3)[Gal(a1-3)Gal(b1-4)[Fuc(a1-3)]GlcNAc(b1-2)Man(a1-6)]Man(b1-4)GlcNAc(b1-4)GlcNAc
# Procedure, shortened: as §1
# Gal(a1-3)GalNAc = target: Gal(a1-3)GalNAc
# Procedure, shortened: as §1
# [7] = target: Gal(a1-3)[Gal(a1-4)]Gal(b1-4)GlcNAc
# Procedure, shortened: as §1
# [8] = target: Gal(a1-4)Gal(b1-3)GlcNAc(b1-2)Man(a1-3)[Gal(a1-4)Gal(b1-3)GlcNAc(b1-2)Man(a1-6)]Man(b1-4)GlcNAc(b1-4)GlcNAc
# Procedure, shortened: as §1
# Gal(a1-4)Gal(b1-4)Glc = target: Gal(a1-4)Gal(b1-4)Glc
# Procedure, shortened: as §1
# Gal(a1-4)Gal(b1-4)GlcNAc = target: Gal(a1-4)Gal(b1-4)GlcNAc
# Procedure, shortened: as §1
# [9] = target: Gal(a1-4)Gal(b1-4)GlcNAc(b1-2)Man(a1-3)[Gal(a1-4)Gal(b1-4)GlcNAc(b1-2)Man(a1-6)]Man(b1-4)GlcNAc(b1-4)GlcNAc
# Procedure, shortened: as §1
# [10] = target: Gal(a1-4)Gal(b1-4)GlcNAc(b1-3)Gal(b1-4)Glc
# Procedure, shortened: as §1
# Gal(a1-4)GlcNAc = target: Gal(a1-4)GlcNAc
# Procedure, shortened: as §1
# Gal(a1-6)Glc = target: Gal(a1-6)Glc
# Procedure, shortened: as §1
# Gal(b1-2)Gal = target: Gal(b1-2)Gal
# Procedure, shortened: as §1
# Gal(b1-3)Gal = target: Gal(b1-3)Gal
# Procedure, shortened: as §1
# Gal(b1-3)Gal(b1-4)GlcNAc = target: Gal(b1-3)Gal(b1-4)GlcNAc
# Procedure, shortened: as §1
# Gal(b1-3)GalNAc = target: Gal(b1-3)GalNAc
# Procedure, shortened: as §1
# [11] = target: Gal(b1-3)GalNAc(a1-3)[Fuc(a1-2)]Gal(b1-4)Glc
# Procedure, shortened: as §1
# [12] = target: Gal(b1-3)GalNAc(a1-3)[Fuc(a1-2)]Gal(b1-4)GlcNAc
# Procedure, shortened: as §1
# Gal(b1-3)GalNAc(b1-3)Gal = target: Gal(b1-3)GalNAc(b1-3)Gal
# Procedure, shortened: as §1
# [13] = target: Gal(b1-3)GalNAc(b1-3)Gal(a1-4)Gal(b1-4)Glc
# Procedure, shortened: as §1
# [14] = target: Gal(b1-3)GalNAc(b1-4)Gal(b1-4)Glc
# Procedure, shortened: as §1
# [15] = target: Gal(b1-3)GalNAc(b1-4)[Neu5Ac(a2-3)]Gal(b1-4)Glc
# Procedure, shortened: as §1
# Gal(b1-3)GlcNAc = target: Gal(b1-3)GlcNAc
# Procedure, shortened: as §1
# [16] = target: Gal(b1-3)GlcNAc(a1-3)Gal(b1-4)GlcNAc
# Procedure, shortened: as §1
# [17] = target: Gal(b1-3)GlcNAc(a1-6)Gal(b1-4)GlcNAc
# Procedure, shortened: as §1
# Gal(b1-3)GlcNAc(b1-2)Man = target: Gal(b1-3)GlcNAc(b1-2)Man
# Procedure, shortened: as §1
# [18] = target: Gal(b1-3)GlcNAc(b1-2)Man(a1-3)[Gal(b1-3)GlcNAc(b1-2)Man(a1-6)]Man(b1-4)GlcNAc(b1-4)GlcNAc
# Procedure, shortened: as §1
# [19] = target: Gal(b1-3)GlcNAc(b1-2)Man(a1-3)[Gal(b1-3)GlcNAc(b1-2)Man(a1-6)]Man(b1-4)GlcNAc(b1-4)[Fuc(a1-6)]GlcNAc
# Procedure, shortened: as §1
# [20] = target: Gal(b1-3)GlcNAc(b1-2)Man(a1-3)[GlcNAc(b1-4)][Gal(b1-3)GlcNAc(b1-2)Man(a1-6)]Man(b1-4)GlcNAc(b1-4)GlcNAc
# Procedure, shortened: as §1
# [21] = target: Gal(b1-3)GlcNAc(b1-2)[Gal(b1-3)GlcNAc(b1-6)]Man(a1-6)[Gal(b1-3)GlcNAc(b1-2)Man(a1-3)]Man(b1-4)GlcNAc(b1-4)GlcNAc
# Procedure, shortened: as §1
# [22] = target: Gal(b1-3)GlcNAc(b1-3)Gal(b1-3)GlcNAc
# Procedure, shortened: as §1
# [23] = target: Gal(b1-3)GlcNAc(b1-3)Gal(b1-4)Glc
# Procedure, shortened: as §1
# [24] = target: Gal(b1-3)GlcNAc(b1-3)Gal(b1-4)GlcNAc
# Procedure, shortened: as §1
# [25] = target: Gal(b1-3)GlcNAc(b1-3)Gal(b1-4)GlcNAc(b1-2)Man(a1-3)[Gal(b1-3)GlcNAc(b1-3)Gal(b1-4)GlcNAc(b1-2)Man(a1-6)]Man(b1-4)GlcNAc(b1-4)GlcNAc
# Procedure, shortened: as §1
# [26] = target: Gal(b1-3)GlcNAc(b1-3)Gal(b1-4)GlcNAc(b1-2)[Gal(b1-3)GlcNAc(b1-3)Gal(b1-4)GlcNAc(b1-6)]Man(a1-6)[Gal(b1-3)GlcNAc(b1-3)Gal(b1-4)GlcNAc(b1-2)Man(a1-3)]Man(b1-4)GlcNAc(b1-4)[Fuc(a1-6)]GlcNAc
# Procedure, shortened: as §1
# [27] = target: Gal(b1-3)GlcNAc(b1-3)Gal(b1-4)GlcNAc(b1-3)Gal(b1-4)GlcNAc(b1-2)[Gal(b1-3)GlcNAc(b1-3)Gal(b1-4)GlcNAc(b1-3)Gal(b1-4)GlcNAc(b1-6)]Man(a1-6)[Gal(b1-3)GlcNAc(b1-3)Gal(b1-4)GlcNAc(b1-3)Gal(b1-4)GlcNAc(b1-2)Man(a1-3)]Man(b1-4)GlcNAc(b1-4)[Fuc(a1-6)]GlcNAc
# Procedure, shortened: as §1
# [28] = target: Gal(b1-3)GlcNAc(b1-3)Gal(b1-4)GlcNAc(b1-6)[Gal(b1-3)GlcNAc(b1-3)]Gal(b1-4)Glc
# Procedure, shortened: as §1
# [29] = target: Gal(b1-3)GlcNAc(b1-3)Gal(b1-4)[Fuc(a1-3)]GlcNAc
# Procedure, shortened: as §1
# [30] = target: Gal(b1-3)GlcNAc(b1-3)Gal(b1-4)[Fuc(a1-3)]GlcNAc(b1-6)[Gal(b1-3)GlcNAc(b1-3)]Gal(b1-4)Glc
# Procedure, shortened: as §1
# [31] = target: Gal(b1-3)GlcNAc(b1-3)GalNAc
# Procedure, shortened: as §1
# [32] = target: Gal(b1-3)GlcNAc(b1-6)Gal(b1-4)GlcNAc
# Procedure, shortened: as §1
# [33] = target: Gal(b1-3)GlcNAc(b1-6)GalNAc
# Procedure, shortened: as §1
binder,measurement,setting,value
B1,glycan array binding signal (z-score),[1],0.165
same,glycan array binding signal (z-score),[2],0.85
same,glycan array binding signal (z-score),[3],-0.146
same,glycan array binding signal (z-score),[4],0.567
same,glycan array binding signal (z-score),[5],1.22
same,glycan array binding signal (z-score),[6],1.35
same,glycan array binding signal (z-score),Gal(a1-3)GalNAc,-0.387
same,glycan array binding signal (z-score),[7],-0.176
same,glycan array binding signal (z-score),[8],0.362
same,glycan array binding signal (z-score),Gal(a1-4)Gal(b1-4)Glc,-0.183
same,glycan array binding signal (z-score),Gal(a1-4)Gal(b1-4)GlcNAc,-0.499
same,glycan array binding signal (z-score),[9],-0.44
same,glycan array binding signal (z-score),[10],-0.507
same,glycan array binding signal (z-score),Gal(a1-4)GlcNAc,-0.058
same,glycan array binding signal (z-score),Gal(a1-6)Glc,0.077
same,glycan array binding signal (z-score),Gal(b1-2)Gal,-0.188
same,glycan array binding signal (z-score),Gal(b1-3)Gal,-0.344
same,glycan array binding signal (z-score),Gal(b1-3)Gal(b1-4)GlcNAc,-0.368
same,glycan array binding signal (z-score),Gal(b1-3)GalNAc,-0.269
same,glycan array binding signal (z-score),[11],-0.398
same,glycan array binding signal (z-score),[12],-0.376
same,glycan array binding signal (z-score),Gal(b1-3)GalNAc(b1-3)Gal,-0.222
same,glycan array binding signal (z-score),[13],-0.191
same,glycan array binding signal (z-score),[14],-0.025
same,glycan array binding signal (z-score),[15],-0.421
same,glycan array binding signal (z-score),Gal(b1-3)GlcNAc,-0.047
same,glycan array binding signal (z-score),[16],-0.293
same,glycan array binding signal (z-score),[17],-0.382
same,glycan array binding signal (z-score),Gal(b1-3)GlcNAc(b1-2)Man,-0.324
same,glycan array binding signal (z-score),[18],0.556
same,glycan array binding signal (z-score),[19],-0.182
same,glycan array binding signal (z-score),[20],1.51
same,glycan array binding signal (z-score),[21],1.42
same,glycan array binding signal (z-score),[22],-0.229
same,glycan array binding signal (z-score),[23],0.974
same,glycan array binding signal (z-score),[24],1.06
same,glycan array binding signal (z-score),[25],0.774
same,glycan array binding signal (z-score),[26],0.18
same,glycan array binding signal (z-score),[27],0.916
same,glycan array binding signal (z-score),[28],-0.327
same,glycan array binding signal (z-score),[29],-0.084
same,glycan array binding signal (z-score),[30],-0.319
same,glycan array binding signal (z-score),[31],-0.415
same,glycan array binding signal (z-score),[32],-0.388
same,glycan array binding signal (z-score),[33],0.148
